According to the supplement of paper PMC12217912:
The list shows a part of the results. Sequences were assembled here from the parent chain. Values near 0.05 are background.

B1: TEV protease; numbered along this chain (parent)
chain: MGESLFKGPRDYNPISSSICHLTNESDGHTTSLYGIGFGPFIITNKHLFRRNNGTLVVQSLHGVFKVKDTTTLQQHLVDGRDMIIIRMPKDFPPFPQKLKFREPQREERICLVTTNFQTKSMSSMVSDTSCTFPSGDGIFWKHWIQTKDGQCGSPLVSTRDGFIVGIHSASNFTNTNNYFTSVPKNFMELLTNQEAQQWVSGWRLNADSVLWGGHKVFMVKPEEPFQPVKEATQL

Variants of: B1
Test: raw area under fraction-flipped curve 0-4 h after induction (AUC4h, not background-subtracted), DNA-recorder readout of cleavage of the substrate (dimensionless); higher = more cleavage of the substrate by the protease variant
Conditions: temperature: 34 °C; time window: 0-4 h after rhamnose induction
Description: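 In vivo DNA recorder in E. coli TOP10(DE3) ΔrhaA at 34 °C. Each TEVp single-site mutant (parent TEVp 0) is paired with a single-site variant of the 7-mer TEVs (canonical ENLYFQ|S). The substrate sits between flexible linkers in a Bxb1-sfGFP-TEVs-SsrA fusion, so cleavage stabilises Bxb1 and speeds flipping of a recombination array, read by NGS. The value is the raw area under the fraction-flipped curve over 0-4 h after rhamnose induction (AUC4h), with ≥20 reads per time point. It is not background-subtracted; inactive controls average about 0.047.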
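Note: Bxb1 expression induced with 0.2% (w/v) L-rhamnose at OD600 near 0.5, cultures sampled hourly, flipped fraction per protease–substrate barcode pair counted by paired-end Illumina sequencing.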

| Variant | area with substrate ENLAFQS | area with substrate ENLDFQS | area with substrate ENLEFQS | area with substrate ENLFFQS | area with substrate ENLHFQS | area with substrate ENLIFQS | area with substrate ENLKFQS | area with substrate ENLNFQS | area with substrate ENLPFQS | area with substrate ENLRFQS | area with substrate ENLSFQS | area with substrate ENLVFQS | area with substrate ENLWFQS | area with substrate ENLLFQS | area with substrate ENLGFQS | area with substrate ENLCFQS | area with substrate ENLMFQS | area with substrate ENLQFQS | area with substrate ENLTFQS |
| --- | --- | --- | --- | --- | --- | --- | --- | --- | --- | --- | --- | --- | --- | --- | --- | --- | --- | --- | --- |
| MGESLFKGPRDYNPISSSICHLTNESDGHTTSLYGIGFGPFIITNKHLFRRNNGTLVVQSLHGVFKVKDTTTLQQHLVDGRDMIIIRMPKDFPPFPQHLKFREPQREERICLVTTNFQTKSMSSMVSDTSCTFPSGDGIFWKHWIQTKDGQCGSPLVSTRDGFIVGIHSASNFTNTNNYFTSVPKNFMELLTNQEAQQWVSGWRLNADSVLWGGHKVFMVKPEEPFQPVKEATQL [K98H] | 0.0573 | 0.0762 | 0.0673 | 0.0945 | 0.0659 | 0.117 | 0.0768 | 0.0629 | 0.0642 | 0.0835 | 0.0708 | 0.0954 | 0.0675 | – | – | – | – | – | – |
| MGESLFKGPRDYNPISSSICHLTNESDGHTTSLYGIGFGPFIITNKHLFRRNNGTLVVQSLHGVFKVKDTTTLQQHLVDGRDMIIIRMPKDFPPFPQKLKPREPQREERICLVTTNFQTKSMSSMVSDTSCTFPSGDGIFWKHWIQTKDGQCGSPLVSTRDGFIVGIHSASNFTNTNNYFTSVPKNFMELLTNQEAQQWVSGWRLNADSVLWGGHKVFMVKPEEPFQPVKEATQL [F101P] | 0.0355 | – | 0.0437 | – | 0.0739 | – | – | 0.0512 | 0.0706 | 0.0519 | 0.0575 | – | 0.0409 | 0.0499 | – | – | – | – | – |
| MGESLFKGPRDYNPISSSICHLTNESDGHTTSLYGIGFGPFIITNKHLFRRNNGTLVVQSLHGVFKVKDTTTLQQHLVDGRDMIIIRMPKDFPPFPQKLKGREPQREERICLVTTNFQTKSMSSMVSDTSCTFPSGDGIFWKHWIQTKDGQCGSPLVSTRDGFIVGIHSASNFTNTNNYFTSVPKNFMELLTNQEAQQWVSGWRLNADSVLWGGHKVFMVKPEEPFQPVKEATQL [F101G] | 0.06 | – | – | – | 0.0532 | – | 0.0717 | – | 0.0624 | – | 0.0436 | – | 0.062 | – | 0.0703 | – | – | – | – |
| MGESLFKGPRDYNPISSSICHLTNESDGHTTSLYGIGFGPFIITNKHLFRRNNGTLVVQSLHGVFKVKDTTTLQQHLVDGRDMIIIRMPKDFPPFPQKLKFREPQREERICLVTTNFETKSMSSMVSDTSCTFPSGDGIFWKHWIQTKDGQCGSPLVSTRDGFIVGIHSASNFTNTNNYFTSVPKNFMELLTNQEAQQWVSGWRLNADSVLWGGHKVFMVKPEEPFQPVKEATQL [Q118E] | 0.0688 | 0.0666 | 0.0536 | 0.0574 | – | – | 0.0755 | – | 0.0718 | 0.0834 | 0.0767 | – | – | – | – | 0.0813 | – | – | – |
| MGESLFKGPRDYNPISSSICHLTNESDGHTTSLYGIGFGPFIITNKHLFRRNNGTLVVQSLHGVFKVKDTTTLQQHLVDGRDMIIIRMPKDFPPFPQKLKFREPQREEDICLVTTNFQTKSMSSMVSDTSCTFPSGDGIFWKHWIQTKDGQCGSPLVSTRDGFIVGIHSASNFTNTNNYFTSVPKNFMELLTNQEAQQWVSGWRLNADSVLWGGHKVFMVKPEEPFQPVKEATQL [R109D] | 0.0687 | 0.0594 | – | – | – | 0.0813 | 0.0805 | – | 0.0382 | 0.0698 | 0.0542 | – | – | – | 0.0687 | 0.0686 | – | – | – |
| MGESLFKGPRDYNPISSSICHLTNESDGHTTSLYGIGFGPFIITNKHLFRRNNGTLVVQSLHGVFKVKDTTTLQQHLVDGRDMIIIRMPKDFPPFPQKLKFREPQREERICLVGTNFQTKSMSSMVSDTSCTFPSGDGIFWKHWIQTKDGQCGSPLVSTRDGFIVGIHSASNFTNTNNYFTSVPKNFMELLTNQEAQQWVSGWRLNADSVLWGGHKVFMVKPEEPFQPVKEATQL [T114G] | 0.0627 | 0.0901 | 0.0686 | 0.122 | – | 0.117 | 0.0615 | 0.0538 | 0.0814 | – | 0.0608 | 0.0762 | 0.0674 | 0.0607 | – | 0.078 | – | – | – |
| MGESLFKGPRDYNPISSSICHLTNESDGHTTSLYGIGFGPFIITNKHLFRRNNGTLVVQSLHGVFKVKDTTTLQQHLVDGRDMIIIRMPKDFPPFPQKLKFREPQREERICLVTTNIQTKSMSSMVSDTSCTFPSGDGIFWKHWIQTKDGQCGSPLVSTRDGFIVGIHSASNFTNTNNYFTSVPKNFMELLTNQEAQQWVSGWRLNADSVLWGGHKVFMVKPEEPFQPVKEATQL [F117I] | 0.0698 | 0.0564 | – | 0.0806 | – | 0.071 | 0.0709 | 0.07 | 0.0701 | – | 0.0756 | 0.0841 | 0.066 | – | – | – | 0.0642 | 0.0484 | – |
| MGESLFKGPRDYNPISSSICHLTNESDGHTTSLYGIGFGPFIITNKHLFRRNNGTLVVQSLHGVFKVKDTTTLQQHLVDGRDMIIIRMPKDFPPFPQKLKFREPQREERICLVTTNFQNKSMSSMVSDTSCTFPSGDGIFWKHWIQTKDGQCGSPLVSTRDGFIVGIHSASNFTNTNNYFTSVPKNFMELLTNQEAQQWVSGWRLNADSVLWGGHKVFMVKPEEPFQPVKEATQL [T119N] | 0.0695 | 0.0571 | 0.0821 | 0.0958 | – | – | 0.082 | – | 0.0516 | – | 0.0358 | 0.0985 | 0.0764 | – | – | – | – | 0.0744 | – |
| MGESLFKGPRDYNPISSSICHLTNESDGHTTSLYGIGFGPFIITNKHLFRRNNGTLVVQSLHGVFKVKDTTTLQQHLVDGRDMIIIRMPKDFPPFPQKLKFREPQREKRICLVTTNFQTKSMSSMVSDTSCTFPSGDGIFWKHWIQTKDGQCGSPLVSTRDGFIVGIHSASNFTNTNNYFTSVPKNFMELLTNQEAQQWVSGWRLNADSVLWGGHKVFMVKPEEPFQPVKEATQL [E108K] | 0.0619 | 0.0765 | – | – | 0.0638 | – | – | – | 0.0509 | 0.0631 | – | – | 0.058 | 0.0654 | 0.0641 | 0.0681 | – | 0.0279 | 0.0613 |
| MGESLFKGPRDYNPISSSICHLTNESDGHTTSLYGIGFGPFIITNKHLFRRNNGTLVVQSLHGVFKVKDTTTLQQHLVDGRDMIIIRMPKDFPPFPQKLKFREPQRERRICLVTTNFQTKSMSSMVSDTSCTFPSGDGIFWKHWIQTKDGQCGSPLVSTRDGFIVGIHSASNFTNTNNYFTSVPKNFMELLTNQEAQQWVSGWRLNADSVLWGGHKVFMVKPEEPFQPVKEATQL [E108R] | 0.0419 | 0.0553 | – | – | 0.06 | – | 0.0469 | 0.0545 | – | 0.0649 | – | – | 0.0696 | 0.0598 | – | – | – | 0.0544 | – |
